Data published in the supplement of paper PMC4604168 (melanoma cell lines).
Some of the results follow. Many values rest on one well or one pass, so single values are uncertain.

Columns and labels:
Assay in all cases: cell count relative to DMSO control; melanoma cells; higher = more viable cells
Conditions in all cases: library dose: low library concentration; 72 h
WM115 = test system: WM115
WM1716 = test system: WM1716
WM1745 = test system: WM1745
WM3526 = test system: WM3526
WM3619 = test system: WM3619
WM451Lu = test system: WM451Lu
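Also: cell number obtained by counting DAPI-stained nuclei in high-throughput microscope images with image analysis software, screen run in 1,536-well plates.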

| SMILES | cell count (WM115) | cell count (WM1716) | cell count (WM1745) | cell count (WM3526) | cell count (WM3619) | cell count (WM451Lu) |
| --- | --- | --- | --- | --- | --- | --- |
| N.N.[Cl][Pt][Cl] [cisplatin] + COc1ccc(Cl)c(Nc2nc3ccccc3nc2NS(=O)(=O)c2cccc(NC(=O)C(C)(C)N)c2)c1 [XL147] (first compound 1.6 µM, partner dose 0.8 µM) | 96.2% | 101% | 106% | 116% | 118% | 106% |
| Cn1cc(C2=C(c3cn(C4CCN(Cc5ccccn5)CC4)c4ccccc34)C(=O)NC2=O)c2ccccc21 [Enzastaurin] + Cc1nc(Nc2ncc(C(=O)Nc3c(C)cccc3Cl)s2)cc(N2CCN(CCO)CC2)n1 [dasatanib] (first compound 0.8 µM, partner dose 0.004 µM) | 89.7% | 91.2% | 69.3% | 126% | 77.1% | 95.6% |
| C[As](C)SC[C@H](NC(=O)CC[C@H](N)C(=O)O)C(=O)NCC(=O)O [Darinaparsin] + Oc1cc(-c2nc(-c3ccccc3)[nH]c2-c2ccncc2)ccc1Cl [L779450] (first compound 0.4 µM, partner dose 0.2 µM) | 79.1% | 103% | 79.5% | 56.2% | 85.4% | 100% |
| C[C@]12O[C@H](C[C@]1(O)CO)n1c3ccccc3c3c4c(c5c6ccccc6n2c5c31)CNC4=O [Lestaurtinib] + Cn1cc(/C=C2\C(=O)Nc3cccnc32)c2ccccc21 [GW441756] (first compound 0.004 µM, partner dose 0.4 µM) | 92.8% | 127% | 76.8% | 93.5% | 117% | 101% |
| Cn1cc(C2=C(c3cn(C4CCN(Cc5ccccn5)CC4)c4ccccc34)C(=O)NC2=O)c2ccccc21 [Enzastaurin] + CO[C@H]1C[C@@H]2CC[C@@H](C)[C@@](O)(O2)C(=O)C(=O)N2CCCC[C@H]2C(=O)O[C@H]([C@H](C)C[C@@H]2CC[C@@H](OCCO)[C@H](OC)C2)CC(=O)[C@H](C)/C=C(\C)[C@@H](O)[C@@H](OC)C(=O)[C@H](C)C[C@H](C)/C=C/C=C/C=C/1C [everolimus] (first compound 0.8 µM, partner dose 0.02 µM) | 88.1% | 94.6% | 88.5% | 80.1% | 75.7% | 93.1% |
| C[As](C)SC[C@H](NC(=O)CC[C@H](N)C(=O)O)C(=O)NCC(=O)O [Darinaparsin] + CO[C@@H]1[C@H](N(C)C(=O)c2ccccc2)C[C@H]2O[C@]1(C)n1c3ccccc3c3c4c(c5c6ccccc6n2c5c31)C(=O)NC4 [Midostaurin] (first compound 0.4 µM, partner dose 0.08 µM) | 93.7% | 76.7% | 96.8% | 95.4% | 98.9% | 85% |
| C[C@]12O[C@H](C[C@]1(O)CO)n1c3ccccc3c3c4c(c5c6ccccc6n2c5c31)CNC4=O [Lestaurtinib] + COc1cc2c(Oc3ccc4[nH]c(C)cc4c3F)ncnc2cc1OCCCN1CCCC1 [cediranib] (first compound 0.004 µM, partner dose 0.4 µM) | 99.3% | 94% | 107% | 95.7% | 109% | 120% |
| C[C@]12O[C@H](C[C@]1(O)CO)n1c3ccccc3c3c4c(c5c6ccccc6n2c5c31)CNC4=O [Lestaurtinib] + CNC(=O)c1cc(Oc2ccc(NC(=O)Nc3ccc(Cl)c(C(F)(F)F)c3)cc2)ccn1 [sorafenib] (first compound 0.004 µM, partner dose 0.4 µM) | 98% | 106% | 86.7% | 89.3% | 89% | 80.6% |
| Cn1cc(C2=C(c3cn(C4CCN(Cc5ccccn5)CC4)c4ccccc34)C(=O)NC2=O)c2ccccc21 [Enzastaurin] + Cn1c(Nc2ccc(C(F)(F)F)cc2)nc2cc(Oc3ccnc(-c4ncc(C(F)(F)F)[nH]4)c3)ccc21 [CHIR265] (first compound 0.8 µM, partner dose 0.08 µM) | 68.1% | 85.1% | 67.9% | 71.6% | 78.4% | 111% |
| N.N.[Cl][Pt][Cl] [cisplatin] + O=C(O)[C@@H]1[O][Sb](=[O])([O][Sb]2(=[O])[O][C@H]([C@H](O)CO)[C@H](O)[C@H](C(=O)O)[O]2)[O][C@H]([C@H](O)CO)[C@@H]1O [stibogluconate] (first compound 1.6 µM, partner dose 2 µM) | 89.4% | 84.2% | 83.9% | 86.8% | 90.4% | 105% |
| N.N.[Cl][Pt][Cl] [cisplatin] + CC(C)CCN1c2nc(Nc3cc(F)c(O)c(F)c3)ncc2N(C)C(=O)C1C [BID1870] (first compound 1.6 µM, partner dose 0.2 µM) | 97.1% | 102% | 101% | 94.7% | 74.6% | 77.9% |
| Cn1cc(C2=C(c3cn(C4CCN(Cc5ccccn5)CC4)c4ccccc34)C(=O)NC2=O)c2ccccc21 [Enzastaurin] + Cc1cc([N+](=O)[O-])ccc1NS(=O)(=O)c1cc(Cl)ccc1Cl [FH535] (first compound 0.8 µM, partner dose 1 µM) | 102% | 98.8% | 94.4% | 92.1% | 85.6% | 105% |
| C[As](C)SC[C@H](NC(=O)CC[C@H](N)C(=O)O)C(=O)NCC(=O)O [Darinaparsin] + C[C@@H]1CCN(C(=O)CC#N)C[C@@H]1N(C)c1ncnc2[nH]ccc12 [CP690550] (first compound 0.4 µM, partner dose 1 µM) | 97.3% | 102% | 112% | 95% | 106% | 94% |
| N.N.[Cl][Pt][Cl] [cisplatin] + c1cc(-c2cnn3cc(-c4ccc(OCCN5CCCCC5)cc4)cnc23)ccn1 [Dorsomorphin] (first compound 1.6 µM, partner dose 0.4 µM) | 94.4% | 86.1% | 89.9% | 88.8% | 100% | 68.8% |
| C[C@]12O[C@H](C[C@]1(O)CO)n1c3ccccc3c3c4c(c5c6ccccc6n2c5c31)CNC4=O [Lestaurtinib] + Nc1cccc2c1CN(C1CCC(=O)NC1=O)C2=O [lenalidomide] (first compound 0.004 µM, partner dose 1 µM) | 98% | 100% | 103% | 92.2% | 102% | 101% |
| N.N.[Cl][Pt][Cl] [cisplatin] + COc1ccc(COc2ccc(Cc3cnc(N)nc3N)cc2OC)cc1 [GW2580] (first compound 1.6 µM, partner dose 1 µM) | 93% | 104% | 115% | 103% | 130% | 89.7% |
| N.N.[Cl][Pt][Cl] [cisplatin] + CO[C@H]1C[C@@H]2CC[C@@H](C)[C@@](O)(O2)C(=O)C(=O)N2CCCC[C@H]2C(=O)O[C@H]([C@H](C)C[C@@H]2CC[C@@H](OCCO)[C@H](OC)C2)CC(=O)[C@H](C)/C=C(\C)[C@@H](O)[C@@H](OC)C(=O)[C@H](C)C[C@H](C)/C=C/C=C/C=C/1C [everolimus] (first compound 1.6 µM, partner dose 0.02 µM) | 88.1% | 74.4% | 88.5% | 75.2% | 73.4% | 86.1% |
| Cn1cc(C2=C(c3cn(C4CCN(Cc5ccccn5)CC4)c4ccccc34)C(=O)NC2=O)c2ccccc21 [Enzastaurin] + C[C@]1(O)C[C@@H](c2nc(-c3ccc4ccc(-c5ccccc5)nc4c3)c3c(N)nccn32)C1 [OSI906] (first compound 0.8 µM, partner dose 0.4 µM) | 99.6% | 95.5% | 99.3% | 113% | 92.5% | 105% |
| Cn1cc(C2=C(c3cn(C4CCN(Cc5ccccn5)CC4)c4ccccc34)C(=O)NC2=O)c2ccccc21 [Enzastaurin] + CCN(CC)CCCCNc1ncc2cc(-c3cc(OC)cc(OC)c3)c(NC(=O)NC(C)(C)C)nc2n1 [PD173074] (first compound 0.8 µM, partner dose 0.1 µM) | 112% | 112% | 81.9% | 100% | 82.5% | 114% |
| C[C@]12O[C@H](C[C@]1(O)CO)n1c3ccccc3c3c4c(c5c6ccccc6n2c5c31)CNC4=O [Lestaurtinib] + COc1cc(N2CCC(N3CCN(C)CC3)CC2)ccc1Nc1ncc(Cl)c(Nc2ccccc2S(=O)(=O)C(C)C)n1 [NVP-TAE684] (first compound 0.004 µM, partner dose 0.08 µM) | 89.6% | 94.5% | 84.9% | 73.1% | 75.6% | 107% |
| C[As](C)SC[C@H](NC(=O)CC[C@H](N)C(=O)O)C(=O)NCC(=O)O [Darinaparsin] + OCCn1cc(-c2cnc3nnn(Cc4ccc5ncccc5c4)c3n2)cn1 [PF04217903] (first compound 0.4 µM, partner dose 1 µM) | 108% | 93.8% | 78% | 93.5% | 119% | 70% |
| C[C@]12O[C@H](C[C@]1(O)CO)n1c3ccccc3c3c4c(c5c6ccccc6n2c5c31)CNC4=O [Lestaurtinib] + OCCn1cc(-c2cnc3nnn(Cc4ccc5ncccc5c4)c3n2)cn1 [PF04217903] (first compound 0.004 µM, partner dose 1 µM) | 101% | 134% | 87.4% | 94.6% | 100% | 88.9% |
| N.N.[Cl][Pt][Cl] [cisplatin] + CCN(CC)CCCCNc1ncc2cc(-c3cc(OC)cc(OC)c3)c(NC(=O)NC(C)(C)C)nc2n1 [PD173074] (first compound 1.6 µM, partner dose 0.1 µM) | 91.8% | 105% | 89.7% | 94.5% | 101% | 89.7% |
| C[C@]12O[C@H](C[C@]1(O)CO)n1c3ccccc3c3c4c(c5c6ccccc6n2c5c31)CNC4=O [Lestaurtinib] + Cn1c(=O)n(-c2ccc(C(C)(C)C#N)cc2)c2c3cc(-c4cnc5ccccc5c4)ccc3ncc21 [NVP-BEZ235] (first compound 0.004 µM, partner dose 0.004 µM) | 96.8% | 94.2% | 88.9% | 82.3% | 88.5% | 92.7% |
